In paper PMC5504085 (Journal of medicinal chemistry, 2017):

Legend:
[1] = system: vesicular stomatitis virus (VSV); type: cell-based; details: resynthesized 1a
[2] = system: influenza A virus A/WSN/1933 (H1N1); assay: Dose-response reporter assay against IAV; type: cell-based
[3] = system: RSV N mRNA (recRSV-A2-L19F); details: MOI 3.0, 20-hour exposure

Cc1ccoc1C(=O)N1CCCn2nc(C(=O)Nc3ccccc3)cc2C1 [Compound 1a, 5-(3-methylfuran-2-carbonyl)-N-phenyl-5,6,7,8-tetrahydro-4H-pyrazolo[1,5-a][1,4]diazepine-2-carboxamide]
inhibition of VSV [1]: neither of these pathogens was inhibited
inhibition of influenza A virus A/WSN/1933 (H1N1) [2]: neither of these pathogens was inhibited
concentration above which reduction of RSV N mRNA was statistically significant [3]: exceeded 1 µM
relative amount of RSV N protein-encoding mRNA ([3]; 0.1 to 10 µM, dose-dependent): reduced the relative amount of RSV N protein-encoding mRNA
